According to US20080311122A1 (AstraZeneca / MedImmune, published 2008):

Biological target: T1, recombinant rat HMGB-1, Europium-labeled (rat, UniProt P63159 1-215, limits assumed, Europium label, molar ratio of HMGB-1 to Eu 1:5)
T1 construct: also called Europium-labeled HMGB-1; recombinant HMG1 (Thp-1 assay)
T1 sequence (looked up): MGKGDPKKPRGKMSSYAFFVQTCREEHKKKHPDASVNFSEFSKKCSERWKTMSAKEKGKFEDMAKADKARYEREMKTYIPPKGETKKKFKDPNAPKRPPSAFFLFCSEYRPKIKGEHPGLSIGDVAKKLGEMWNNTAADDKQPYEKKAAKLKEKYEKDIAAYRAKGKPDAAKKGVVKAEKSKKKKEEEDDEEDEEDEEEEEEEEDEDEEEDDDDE
Assay: inhibition of the binding of 2 nM Europium-labeled rat HMGB-1 to THP-1 cells, fluorescence at 615 nm
Procedure: HMG1 binding to THP-1 Cells: Recombinant rat HMGB-1 was labeled using Eu-labelling Kit from PerkinElmer. Molar ratio of HMGB-1 to Eu is 1:5. THP-1 were cultured as the protocol from ATCC. Cells were harvested and suspended at concentration 1×10⁶/ml in assay buffer containing 1×DELFIA L*R binding buffer (PerkinElmer), 50% of DELFIA stabilizer (PerkinElmer) and 0.05% of sodium azide. 100 μl of cells (1×10⁵) was added into wells in 96 well cell culture plate. The plate was incubated with gentle shaking at 4° C. for one hour. 100 μl of assay buffer containing 2 nM of Europium-labeled HMGB-1 mixed with various concentrations (333, 166.5, 83.25, 41.6, 20.8, 10.4 and 5.2 nM) of human anti-HMGB1 antibodies E11 or G2 or soluble human RAGE-Fc, were added into each wells respectively. After one hour incubation with gentle shaking at 4° C., the cells were washed four times with 1×L*R wash buffer (PerkinElmer) by centrifuging at 1200 rpm×5 min. 200 μl of enhancement solution was added into each well to dissociate and enhance Eu fluorescence at 615 nm. The fluorescence was measured with Wallac Victor Fluorometer. Assay was performed in triplicate and human antibody R3-47 was used the negative isotype control.

B1: soluble human RAGE-Fc (Fc fusion)
chain: not shown
notes: also called human-RAGE-Fc fusion protein; not shown: Fc part not described
- IC50 (read off the curve): ~80 nM
